Reference: the supplement of paper PMC7826260
The list shows a part of the results. Viral Rep nickase domains cut single-stranded DNA in vitro at 3 µM enzyme and 37 °C for 1 h; the strands have 90 letters, of which the middle is given. Numbers give uncut DNA relative to the enzyme-free pool, as log2; more negative means more cut, near 0 not cut, and no call is made. The scaling is to total reads, so uncut sequences can rise above 0 when many others are cut.

Experiments:
Assay in all cases: uncleaved DNA left, log2 of reads against the no-enzyme library (log2 ratio); higher = less cleavage (more negative = more Rep cleavage of the k-mer); sequences stand for … in CTCGTCCG…ACCGGAGA
[1] = system: T1, Rep nickase domain of Muscovy duck circovirus
T1 sequence (protein, residues 1-111, tag omitted): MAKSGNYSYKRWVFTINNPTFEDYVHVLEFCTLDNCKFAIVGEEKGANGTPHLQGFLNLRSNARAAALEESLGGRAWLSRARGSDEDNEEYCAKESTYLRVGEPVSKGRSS
Protocol: (§1)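 A pool of 90-nt single-stranded DNAs with seven random bases just before the constant AC of the nick site (name = the seven bases) was cut by 3 µM recombinant His6-SUMO-tagged Rep nickase domain (300 nM DNA, 50 mM HEPES pH 8.0, 50 mM NaCl, 1 mM MnCl2, 1 h, 37 °C, three replicates). Uncut DNA was amplified and sequenced.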

[2] = system: T2, Rep nickase domain of banana bunchy top virus
T2 sequence (protein, residues 1-94, tag omitted): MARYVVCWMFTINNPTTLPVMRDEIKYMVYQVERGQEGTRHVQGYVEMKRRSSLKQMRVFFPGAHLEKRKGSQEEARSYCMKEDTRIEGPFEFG
Protocol: as §1

[3] = system: T3, Rep nickase domain of cabbage leaf curl virus
T3 sequence (protein, residues 1-116, tag omitted): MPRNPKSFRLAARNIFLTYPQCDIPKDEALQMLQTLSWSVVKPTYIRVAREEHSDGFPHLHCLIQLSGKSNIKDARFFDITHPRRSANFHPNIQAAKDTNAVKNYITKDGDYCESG
Protocol: as §1

[4] = system: T4, Rep nickase domain of chickpea chlorotic dwarf virus
T4 sequence (protein, residues 1-124, tag omitted): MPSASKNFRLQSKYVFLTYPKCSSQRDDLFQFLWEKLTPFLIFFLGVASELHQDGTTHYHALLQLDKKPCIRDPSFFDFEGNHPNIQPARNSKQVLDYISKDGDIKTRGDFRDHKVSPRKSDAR
Protocol: as §1

[5] = system: T5, Rep nickase domain of faba bean necrotic yellows virus
T5 sequence (protein, residues 1-98, tag omitted): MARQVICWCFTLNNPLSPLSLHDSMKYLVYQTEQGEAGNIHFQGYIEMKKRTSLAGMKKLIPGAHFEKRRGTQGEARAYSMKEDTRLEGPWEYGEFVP
Protocol: as §1

[6] = system: T6, Rep nickase domain of maize striate mosaic virus
T6 sequence (protein, residues 1-117, tag omitted): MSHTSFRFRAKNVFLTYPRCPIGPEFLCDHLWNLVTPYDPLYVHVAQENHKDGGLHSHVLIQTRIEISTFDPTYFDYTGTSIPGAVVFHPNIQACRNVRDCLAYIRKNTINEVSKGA
Protocol: as §1

[7] = system: T7, Rep nickase domain of porcine circovirus 2
T7 sequence (protein, residues 2-116, tag omitted): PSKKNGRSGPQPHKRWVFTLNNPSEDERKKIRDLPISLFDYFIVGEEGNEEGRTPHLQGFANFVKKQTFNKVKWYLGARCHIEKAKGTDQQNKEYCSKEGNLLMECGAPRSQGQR
Protocol: as §1

[8] = system: T8, Rep nickase domain of tomato golden mosaic virus
T8 sequence (protein, residues 1-124, tag omitted): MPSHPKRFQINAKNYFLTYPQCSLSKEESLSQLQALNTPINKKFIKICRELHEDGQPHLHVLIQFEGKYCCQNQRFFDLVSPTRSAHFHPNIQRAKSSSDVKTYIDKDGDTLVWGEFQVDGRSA
Protocol: as §1

[9] = system: T9, Rep nickase domain of tomato yellow leaf curl virus
T9 sequence (protein, residues 1-136, tag omitted): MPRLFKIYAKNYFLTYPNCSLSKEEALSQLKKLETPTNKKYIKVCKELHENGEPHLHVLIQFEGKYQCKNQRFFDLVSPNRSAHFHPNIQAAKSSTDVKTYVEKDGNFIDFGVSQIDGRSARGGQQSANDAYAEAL
Protocol: as §1

[10] = system: T10, Rep nickase domain of wheat dwarf virus
T10 sequence (protein, residues 1-137, tag omitted): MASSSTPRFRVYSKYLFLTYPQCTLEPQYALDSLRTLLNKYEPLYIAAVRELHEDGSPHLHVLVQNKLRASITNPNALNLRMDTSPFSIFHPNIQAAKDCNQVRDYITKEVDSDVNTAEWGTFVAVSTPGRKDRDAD
Protocol: as §1

Sequence	uncleaved DNA left (log2) [1]	uncleaved DNA left (log2) [2]	uncleaved DNA left (log2) [3]	uncleaved DNA left (log2) [4]	uncleaved DNA left (log2) [5]	uncleaved DNA left (log2) [6]	uncleaved DNA left (log2) [7]	uncleaved DNA left (log2) [8]	uncleaved DNA left (log2) [9]	uncleaved DNA left (log2) [10]
ATCCACT	-0.0995	-0.111	-0.265	-2.5	-0.166	-0.811	-0.706	-0.0847	-0.0537	-0.0784
ATGGCCC	-0.133	0.0794	0.225	0.554	-0.0888	0.403	-0.0159	-0.0404	-0.0109	-0.0902
CGAATTG	0.0798	0.0373	0.102	0.578	0.0923	1.28	0.0779	0.0206	-0.00675	0.0994
TTTTCAT	-0.181	0.108	0.247	-0.431	0.0691	-0.0536	-0.417	-0.0159	0.27	0.136
TCTCGTG	0.0354	-0.245	-0.652	-0.917	-0.101	-1.21	-0.0115	-0.0569	-0.097	-0.312
CATATTA	-0.151	-0.0116	-0.337	-1.96	-0.197	-1.01	-0.145	-0.0347	-0.0217	0.0273
TGTGTAG	0.00596	-0.0668	-0.734	-0.566	0.0239	-1.06	-9.03e-05	-0.147	0.0479	-0.311
TATTGCG	-0.266	-0.14	0.457	1.09	-0.0355	1.97	0.0314	-0.193	-0.348	-0.0683
CCATATT	-3.94	-2.63	-3.4	-3.27	-0.481	-2.15	-4.09	-2.44	-0.179	-2.02
CTGTCTA	-0.0375	-0.104	-0.183	-1.07	-0.0288	-0.59	-0.168	-0.249	-0.00982	-0.127
TTTAGGC	-0.0581	-0.103	0.359	0.697	-0.0483	0.64	0.0951	0.0681	-0.138	0.0485
ACCGCAG	-0.0536	-0.1	-0.635	0.091	0.0288	-0.623	0.096	-0.0433	0.00392	-0.227
CAGTTCG	-0.00413	-0.0401	-0.93	0.25	-0.0157	-0.709	-0.0878	-0.264	-0.102	-0.182
TAAAGGG	0.163	0.0325	-0.578	-1.11	0.167	-0.474	0.163	0.11	-0.00841	0.00556
ATGAGTG	0.127	0.199	-0.234	0.303	0.142	-0.687	0.27	0.26	0.05	0.0337
GCACTGT	-0.122	-0.137	-0.214	0.178	-0.132	0.443	-0.0611	-0.213	-0.178	-0.0648
AATGGCC	-0.0385	-0.149	-0.0694	0.557	-0.047	0.711	0.0171	-0.0356	-0.116	-0.0799
ACAAAGA	0.169	0.0292	-0.0115	-0.0369	0.0858	-0.97	0.13	0.0206	0.115	0.0495
GTGGTTT	0.00567	-0.115	0.28	0.735	-0.0641	1.7	-0.0443	-0.073	-0.0912	-0.139
AACCAAG	-0.0908	-0.0237	-0.66	-0.435	0.00346	-1.19	-0.0424	0.00865	0.0224	-0.0344

Sequence	uncleaved DNA left (log2) [1]	uncleaved DNA left (log2) [2]	uncleaved DNA left (log2) [3]	uncleaved DNA left (log2) [4]	uncleaved DNA left (log2) [5]	uncleaved DNA left (log2) [6]	uncleaved DNA left (log2) [7]	uncleaved DNA left (log2) [8]	uncleaved DNA left (log2) [9]	uncleaved DNA left (log2) [10]
ATCGTGC	0.0119	-0.0635	-0.618	-0.541	-0.0554	-1.17	0.0986	-0.0188	0.0244	-0.154
ATCTGGC	0.0505	0.112	-0.125	-0.125	0.0501	-0.622	0.288	0.0506	0.0143	0.0437
TACTGTC	-0.0388	-0.0274	-0.113	-0.116	-0.0409	0.153	-0.358	-0.112	-0.122	-0.0164
CAGTATA	-0.0699	-0.339	-0.234	-2.44	-0.611	-0.455	-3.06	-0.0943	-0.0548	-0.053
GGCATCA	0.0504	0.0675	0.57	1.39	0.0665	1.9	0.179	-0.0593	0.129	0.189
TGAATGT	0.0489	-0.00103	0.0907	0.198	-0.0464	0.316	-0.0319	-0.0717	0.038	0.0752
CGCGCAC	-0.0581	-0.0269	-0.103	-0.0994	-0.154	-0.222	-0.0557	-0.0847	-0.144	-0.062
CGGCTCT	-0.0114	-0.176	-6.82e-05	-0.652	-0.0945	0.371	-0.0578	-0.0254	-0.0288	0.0228
GTAACGG	0.0452	0.0855	0.606	1.63	-0.0365	2.19	0.169	0.197	-0.0149	0.112
TTCTCAA	0.184	0.115	0.21	0.341	0.0155	0.27	0.0652	0.00137	0.169	0.101
AGCGCGG	0.0237	0.13	-0.00535	0.593	-0.0286	1.64	0.0881	0.103	0.0262	0.0497
TGATTGT	-0.219	0.083	-0.241	-0.308	0.125	-0.957	-0.254	-0.0488	-0.0442	-0.0444
AATACAT	0.0928	-0.00135	0.101	-0.396	0.00195	0.49	-1.64	-0.00144	0.156	0.121
TGGATGG	0.0141	-0.0278	0.234	0.494	-0.0084	0.156	0.0169	-0.0328	-0.138	-0.00382
AATCACC	0.0351	-0.0147	0.0412	-0.398	0.0691	-0.167	-0.0574	0.0425	0.0526	0.0599
CCTATTC	-0.0719	-0.029	-0.0596	-0.262	-0.0261	-0.971	0.0485	-0.0665	0.00308	-0.0155
TGAGGCG	-0.00758	-0.108	-0.865	0.356	-0.0129	-0.701	0.0733	-0.0493	-0.0925	-0.0859
AGTTTCC	-1.25	-0.0221	0.0038	-0.205	-0.146	-0.0741	-2.79	-0.101	-0.127	-0.165
AAAACGC	0.0527	-0.0338	-0.255	-0.625	0.0463	-1.06	0.13	0.0319	-0.0535	-0.122
CTACTTA	0.027	-0.0693	-0.0528	-1.96	0.0461	-0.584	-0.176	-0.107	-0.115	-0.0126

Sequence	uncleaved DNA left (log2) [1]	uncleaved DNA left (log2) [2]	uncleaved DNA left (log2) [3]	uncleaved DNA left (log2) [4]	uncleaved DNA left (log2) [5]	uncleaved DNA left (log2) [6]	uncleaved DNA left (log2) [7]	uncleaved DNA left (log2) [8]	uncleaved DNA left (log2) [9]	uncleaved DNA left (log2) [10]
TGGACTT	0.0262	-0.0505	0.83	1.89	-0.0522	2.16	0.13	-0.168	-0.0589	0.116
ATGGCCT	0.167	0.0309	-0.0191	-0.336	0.132	0.468	0.00197	0.0672	-0.0173	0.0473
ATGCGAT	0.0107	-0.146	0.0558	0.839	-0.0244	0.734	0.207	-0.00639	-0.0487	-0.212
TTGATTG	0.059	-0.102	-0.351	-0.0349	-0.0706	-0.581	0.0529	-0.119	-0.125	-0.0915
TAGAGGA	0.0798	0.0641	0.159	0.323	0.053	-0.118	-0.115	0.0624	-0.0476	0.0326
GTTTTAT	0.00431	0.0321	0.243	0.766	-0.057	1.74	0.0188	0.0506	-0.0348	0.0484
GAAGGGG	0.0173	0.112	0.364	0.685	0.0183	0.638	0.171	0.104	-0.0452	0.0263
CAGTCGG	0.00771	0.0726	0.341	1.03	-0.0521	0.945	-0.052	0.177	-0.117	-0.0495
CACTTAC	0.0424	-0.0616	-0.39	-2.47	-0.0625	-1.09	-0.245	-0.132	-0.114	-0.151
AGATGTG	-0.0304	-0.123	-0.756	-0.285	0.0659	-0.988	0.0719	-0.02	-0.053	-0.187
TAAGTAG	-0.00484	-0.0265	-0.648	-0.971	0.0718	-1.2	0.167	-0.00198	0.0733	-0.117
GGGAAAT	0.175	0.213	0.968	2.24	0.133	2.36	0.27	0.0462	0.057	0.241
TTCGGTC	-0.0595	0.11	0.393	0.244	0.0218	0.0739	0.139	0.0725	0.149	0.0154
AACGACG	0.0479	-0.0208	-0.172	0.218	0.0349	0.341	0.13	0.0284	-0.0953	-0.0332
TGTCTTG	0.0203	0.0393	-0.111	-0.764	0.0313	-0.145	-0.00508	-0.124	-0.0396	-0.126
TGCCTGA	0.135	-0.0263	0.208	0.544	0.164	0.797	0.173	0.139	0.0663	0.171
CTTTCTG	-0.0829	-0.0563	-0.524	-0.491	-0.155	-0.791	-0.115	-0.241	-0.117	-0.102
TAACGTC	0.0469	-0.148	-1.15	-2.82	-0.0706	-0.849	-0.102	-0.158	-0.0599	-0.235
CCAGCAG	0.02	0.0261	-0.461	-0.42	0.108	-0.912	0.292	-0.0201	0.0319	-0.11
AAGACCG	-0.0329	-0.00801	-0.38	-0.597	0.0498	-0.885	0.136	0.0565	-0.0259	0.00223
